Results published in paper PMC4336329 (PLoS ONE, 2015).
Screen size: about 310,000 compounds; about 2,200 (0.71%) showed an effect of 50% or more. Effects have a minus sign here. This is one part of the list.

Each compound was assayed against human ether-à-go-go-related gene (hERG) potassium channel (human, UniProt Q12809) (assay: primary screen, population patch clamp on CHO cells stably expressing hERG).
Chain of human ether-à-go-go-related gene (hERG) potassium channel (Q12809 whole entry, looked up): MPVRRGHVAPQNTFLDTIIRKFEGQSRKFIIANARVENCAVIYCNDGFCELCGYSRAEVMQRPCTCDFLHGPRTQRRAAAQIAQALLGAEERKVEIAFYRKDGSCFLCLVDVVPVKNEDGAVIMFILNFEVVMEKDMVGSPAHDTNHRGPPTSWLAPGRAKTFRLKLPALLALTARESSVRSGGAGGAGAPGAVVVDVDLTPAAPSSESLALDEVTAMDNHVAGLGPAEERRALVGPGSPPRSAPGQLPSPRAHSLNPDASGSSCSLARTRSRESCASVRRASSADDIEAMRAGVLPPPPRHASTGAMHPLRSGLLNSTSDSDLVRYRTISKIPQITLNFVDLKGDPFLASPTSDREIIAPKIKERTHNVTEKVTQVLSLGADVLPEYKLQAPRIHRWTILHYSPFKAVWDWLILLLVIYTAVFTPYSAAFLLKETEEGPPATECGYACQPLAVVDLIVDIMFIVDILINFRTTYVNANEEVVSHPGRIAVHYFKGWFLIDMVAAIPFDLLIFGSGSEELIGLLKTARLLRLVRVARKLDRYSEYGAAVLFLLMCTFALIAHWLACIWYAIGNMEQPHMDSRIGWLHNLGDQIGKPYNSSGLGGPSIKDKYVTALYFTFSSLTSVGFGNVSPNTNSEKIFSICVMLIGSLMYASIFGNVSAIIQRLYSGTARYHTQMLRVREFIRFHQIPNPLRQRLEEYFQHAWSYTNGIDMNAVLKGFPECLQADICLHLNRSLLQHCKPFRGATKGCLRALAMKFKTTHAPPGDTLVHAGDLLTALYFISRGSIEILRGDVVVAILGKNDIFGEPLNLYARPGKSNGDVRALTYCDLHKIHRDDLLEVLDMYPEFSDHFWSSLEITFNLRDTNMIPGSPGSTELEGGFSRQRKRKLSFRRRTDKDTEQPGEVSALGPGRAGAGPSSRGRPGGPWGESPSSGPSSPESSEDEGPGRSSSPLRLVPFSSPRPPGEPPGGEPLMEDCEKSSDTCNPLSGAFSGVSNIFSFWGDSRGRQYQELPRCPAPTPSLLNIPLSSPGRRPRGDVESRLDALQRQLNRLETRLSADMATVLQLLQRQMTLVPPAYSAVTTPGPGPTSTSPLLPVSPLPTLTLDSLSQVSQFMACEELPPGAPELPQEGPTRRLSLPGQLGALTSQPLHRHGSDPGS

Row | SMILES | hERG current change (%, negative = inhibition) at 1uM
1 | Cc1ccc(C(=O)Nc2cccnc2)cc1S(=O)(=O)N1CCCCC1 | 10.2%
2 | CN(C(=O)c1ccc(NC(=O)Cc2cccc(NC(=O)C3CCCN(C(=O)C4CCCC4)C3)c2)cc1)C1CCCC1 (stereo not shown) | 9.21%
3 | CC(OC(=O)COc1ccc(C#N)cc1)C(=O)Nc1ccc(Cl)cn1 (stereo not shown) | 0.0565%
4 | COc1ccc(NC(=O)C2Cc3ccccc3CN2C(=O)c2ccccc2)cn1 (stereo not shown) | 8.2%
5 | Cc1cccc(Nc2nc(N)c([N+](=O)[O-])c(NCc3ccccc3)n2)c1 | 5.82%
6 | COc1ccc(/C=C2\CCc3ccccc3C2=O)cc1O | 14.2%
7 | CC1CCN(c2oc(Cc3cccc4ccccc34)nc2C#N)CC1 | -0.584%
8 | CC(C)c1ccc(Nc2nc(NCc3ccco3)nc(N3CCOCC3)n2)cc1 | 7.58%
9 | COc1ccccc1-c1nc(SCC(=O)NCc2ccco2)c2c(=O)n(C)c(=O)n(C)c2n1 | 11.9%
10 | CCOc1ccc2nc(NC(=O)C(NS(=O)(=O)c3cccs3)C(C)C)sc2c1 (stereo not shown) | 8.05%
11 | CCOC(=O)N1CCC(=NNC(=O)COc2ccc(OC)cc2)CC1 | 9.72%
12 | CC12COC3(C(=O)Nc4ccc5ccccc5c4)CC1CCC32C (stereo not shown) | 12.2%
13 | CCc1ccc(NC(=O)CN2CCC(C(=O)c3ccc(OC)cc3)CC2)cc1 | -3.64%
14 | CN(C)c1nnnn1-c1ccc(Oc2ccccc2)cc1 | -6.74%
15 | COc1ccc(OC)c2c1cc(C(=O)N[C@H](C(=O)N1CCC[C@H]1C(=O)O)C(C)C)n2C | 18.5%
16 | COCCOC(=O)C1=C(N)Oc2c(c(=O)oc3ccccc23)[C@@]12C(=O)Nc1ccccc12 | 12.1%
17 | CC(=O)c1ccc(-c2ccc(C(=O)NC3CC(C)(C)NC(C)(C)C3)o2)cc1 | -71.1%
18 | C/C(=N\NC(=O)c1cc(C)[nH]n1)c1cccs1 | 7.47%
19 | O=C(/C=C/c1ccc(Cl)c([N+](=O)[O-])c1)Nc1ccc(N2CCCC2)c(Cl)c1 | 15.8%
20 | CC1CCN(CCNC(=O)C2CCN(S(=O)(=O)c3cccc4nsnc34)CC2)CC1 | -5.06%
21 | c1ccc2c(c1)ncn2Cc1nnc2sc(-c3ccc4c(c3)OCO4)nn12 | 9.73%
22 | CN(C)S(=O)(=O)c1ccc(NC(=O)N2CCOCC2)cc1 | 14.3%
23 | COc1cc(CN2CCNC(=O)C2CC(=O)N(Cc2nccn2C)C(C)C)cc(OC)c1 (stereo not shown) | 10.1%
24 | Cc1cc(C)nc(SCC(=O)Nc2cccc(S(=O)(=O)N(C)C)c2)n1 | 5.02%
25 | COC(=O)c1ccc(CN(c2ccc(C(=O)O)c(O)c2)S(=O)(=O)c2ccc(Cl)c([N+](=O)[O-])c2)cc1 | 15.6%
26 | CCC1CCCCN1CCCNC(=O)COc1cc(=O)n(C)c2ccccc12 (stereo not shown) | 8.4%
27 | C#CCNC(=O)C1=C[C@H](C(C)(C)C)C[C@H](OCc2ccc(CO)cc2)O1 | 5.41%
28 | CCn1c(=O)c2sccc2n2c(CCCC(=O)N3CCN(c4ccccn4)CC3)nnc12 | 15.1%

Row | SMILES | hERG current change (%, negative = inhibition) at 1uM
29 | CC(=O)c1cccc(NC(=O)CC2CCCC2)c1 | 11.3%
30 | CC1CCN(C(=O)CN2C(=O)COc3ccc(Cl)cc32)CC1 | 14.2%
31 | CCN(CC)C(=O)NC1CCCCCCC1 | 14.7%
32 | COc1ccc(C)cc1NC(=O)NCc1ccccc1F | 1.39%
33 | CO/N=C(/CNC(=O)c1ccc(Cl)cc1Cl)c1ccc(Cl)cc1 | -2.43%
34 | CCOC(=O)C1CCN(C(=O)CCc2nnc3ccc(N4CCC(C)CC4)nn23)CC1 | -8.48%
35 | CCNC(=S)N(CCCN(CC)CC)Cc1cc2cc3c(cc2[nH]c1=O)OCO3 | 9.28%
36 | CC(C)(C)C(O)CN1CCCC1.Cl (stereo not shown) | 5.11%
37 | O=Cc1ccc(N2CCCCC2)cc1 | 9.83%
38 | CCN1CCN(C(=O)Nc2ccccc2OC)CC1.O=C(O)C(=O)O | 6.25%
39 | c1ccc(Nc2nc(-c3ccccc3)nc3ccccc23)cc1 | 13.5%
40 | FC(F)Oc1cccc2cccnc12 | 5.7%
41 | Cn1c(NC(=O)c2ccc(S(=O)(=O)N3CCOCC3)cc2)cc(=O)n(C)c1=O | 5.35%
42 | O=C(NCCN1CCN(S(=O)(=O)c2ccccc2)CC1)C(=O)Nc1ccc(F)cc1 | 8.68%
43 | O=C(CSc1ncnc2nc[nH]c12)c1ccc2ccccc2c1 | 8.36%
44 | CCOC(=O)c1c(-c2ccccc2)oc2ccc(OCC(=O)NNC(=O)CCC(=O)O)cc12 | 16.3%
45 | COc1ccc(C2/C(=C(\O)c3cccc(OC)c3)C(=O)C(=O)N2c2ccccn2)cc1 (stereo not shown) | 0.101%
46 | Cc1oc(-c2cccs2)nc1CN1CCC(C(=O)N2CCCC2)CC1 | 3.24%
47 | COc1ccc(N2CCN(C(=O)Cc3ccc(OC)c(OC)c3)CC2)cc1 | 16.2%
48 | Nc1sc(-c2ccccc2)cc1C(=O)N/N=C/c1ccc(Cl)cc1 | 8.22%
49 | CC1CCCCN1C(=S)NC(=O)c1cccs1 (stereo not shown) | 13.1%
50 | Cc1c(NC(=O)c2ccc(-c3cccc([N+](=O)[O-])c3)o2)c(=O)n(-c2ccccc2)n1C | 7.82%
51 | COC(=O)c1cc(C(=O)OCC(=O)NC2CCCCCCC2)cc([N+](=O)[O-])c1 | 5.85%
52 | COCCN1C(=O)C(=O)/C(=C(/O)c2ccc(S(=O)(=O)N3CCOCC3)cc2)C1c1cccc([N+](=O)[O-])c1 (stereo not shown) | 14.4%
53 | Cc1ccccc1CSc1nnc(-c2ccccn2)n1C | 10.8%
54 | COc1ccc(C(=O)c2c[nH]c(C(=O)NCC3CCCO3)c2)cc1 (stereo not shown) | 3.6%
55 | CCc1cccc(C)c1NC(=S)NCC(c1cccnc1)N(C)C (stereo not shown) | 8.72%
